In publication PMC3797442, “Analysis of the role of Arabidopsis class I TCP genes AtTCP7, AtTCP8, AtTCP22, and AtTCP23 in leaf development” one finds binding data, which are given here for six molecules.

Sequences of proteins named here, by UniProt entry; tags and fusion partners are left off.
UniProt Q9C518: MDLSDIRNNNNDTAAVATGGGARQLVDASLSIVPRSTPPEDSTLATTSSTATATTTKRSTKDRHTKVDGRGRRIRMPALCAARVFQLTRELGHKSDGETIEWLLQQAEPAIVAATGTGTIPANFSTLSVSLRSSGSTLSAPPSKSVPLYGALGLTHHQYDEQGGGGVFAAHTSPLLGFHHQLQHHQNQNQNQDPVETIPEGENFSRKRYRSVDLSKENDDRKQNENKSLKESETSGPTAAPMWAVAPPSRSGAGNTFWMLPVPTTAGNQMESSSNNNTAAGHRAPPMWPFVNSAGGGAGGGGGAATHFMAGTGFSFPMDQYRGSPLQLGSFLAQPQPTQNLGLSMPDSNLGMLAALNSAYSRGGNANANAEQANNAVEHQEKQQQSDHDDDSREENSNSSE
UniProt Q9FTA2: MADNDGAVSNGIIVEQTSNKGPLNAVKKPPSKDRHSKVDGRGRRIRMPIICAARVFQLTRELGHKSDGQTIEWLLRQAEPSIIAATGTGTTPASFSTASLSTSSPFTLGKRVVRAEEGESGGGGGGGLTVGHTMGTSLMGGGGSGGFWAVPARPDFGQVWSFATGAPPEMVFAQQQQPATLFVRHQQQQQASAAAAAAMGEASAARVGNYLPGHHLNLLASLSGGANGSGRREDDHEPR
UniProt Q9LQF0: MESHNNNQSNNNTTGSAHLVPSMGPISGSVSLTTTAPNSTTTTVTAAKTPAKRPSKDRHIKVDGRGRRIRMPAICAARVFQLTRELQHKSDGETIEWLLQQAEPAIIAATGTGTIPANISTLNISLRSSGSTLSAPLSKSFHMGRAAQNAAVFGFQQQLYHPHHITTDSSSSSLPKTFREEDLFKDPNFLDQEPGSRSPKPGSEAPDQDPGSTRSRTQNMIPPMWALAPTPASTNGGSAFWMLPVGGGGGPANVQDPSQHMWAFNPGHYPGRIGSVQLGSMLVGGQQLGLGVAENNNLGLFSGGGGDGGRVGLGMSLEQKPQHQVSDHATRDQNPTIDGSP
UniProt Q9FMX2: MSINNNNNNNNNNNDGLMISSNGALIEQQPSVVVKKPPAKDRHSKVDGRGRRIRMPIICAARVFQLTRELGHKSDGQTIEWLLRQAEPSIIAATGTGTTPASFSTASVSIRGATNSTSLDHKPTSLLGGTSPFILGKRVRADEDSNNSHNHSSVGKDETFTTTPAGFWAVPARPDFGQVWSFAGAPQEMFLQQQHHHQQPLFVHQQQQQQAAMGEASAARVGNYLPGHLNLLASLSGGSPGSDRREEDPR

Test in all cases: two-hybrid; Gal4 DNA-binding domain baits (pGBKT7) and GAL4 activation domain preys (pGADT7) co-transformed into yeast strain AH109; β-galactosidase filter assay on -L-T-H-A + X-gal medium; graded +++ strong, ++ medium, + mild, − no interaction
In assay [1] the target is AtTCP8 (Arabidopsis thaliana) (UniProt Q9C518).
The target in assay [2] is AtTCP21 (Arabidopsis thaliana) (UniProt Q9FTA2).
Assay [3] addresses AtTCP23 (Arabidopsis thaliana) (UniProt Q9LQF0).
Assay [4] concerns the target T1, AtTCP2 (Arabidopsis thaliana) (UniProt Q93V43).
T1 sequence: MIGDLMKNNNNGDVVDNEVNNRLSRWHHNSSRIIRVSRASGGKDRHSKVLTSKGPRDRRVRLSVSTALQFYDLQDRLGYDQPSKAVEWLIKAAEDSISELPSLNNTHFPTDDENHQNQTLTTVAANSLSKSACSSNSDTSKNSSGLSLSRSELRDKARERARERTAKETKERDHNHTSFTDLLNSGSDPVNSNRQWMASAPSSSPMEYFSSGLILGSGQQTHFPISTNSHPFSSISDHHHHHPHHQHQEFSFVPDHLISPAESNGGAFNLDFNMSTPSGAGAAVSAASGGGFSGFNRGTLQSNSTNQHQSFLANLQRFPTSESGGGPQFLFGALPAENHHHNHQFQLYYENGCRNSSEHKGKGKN

The target in assay [5] is AtTCP15 (Arabidopsis thaliana) (UniProt Q9C9L2).
Assay [6] deals with AtTCP8 (Arabidopsis thaliana) (UniProt Q9C518). The source holds these as a separate data set.
The target in assay [7] is AtTCP21 (Arabidopsis thaliana) (UniProt Q9FTA2). The source holds these as a separate data set.
Assay [8] has as its target AtTCP23 (Arabidopsis thaliana) (UniProt Q9LQF0). The source holds these as a separate data set.
Assay [9] deals with AtTCP15 (Arabidopsis thaliana) (UniProt Q9C9L2). The source holds these as a separate data set.

Like-named read-outs stand apart in the source and are kept apart here. Results are given in words; binding and its absence hold for the method and conditions named. Some binding calls cover weakened binding; strength is not graded here.

With AtTCP7 (from UniProt Q9FMX2 1-250), the binding result is reported as “binds weakly” in [1]; “binds weakly” in [2]; “binds” in assay [3]; “no binding” in assay [4]; “no binding” in assay [5].

For the molecule AtTCP8 (from UniProt Q9C518 1-401), the binding result is “binds” in [2], “no binding” in assay [3], “no binding” in assay [4] and “no binding” in assay [5].

Turning to AtTCP15 (from UniProt Q9C9L2 1-325), the binding entry in assay [4] is “no binding”.

For the molecule AtTCP21 (from UniProt Q9FTA2 1-239), the binding entry in assay [3], in assay [4] and in assay [5] was “no binding” throughout.

Regarding AtTCP23 (from UniProt Q9LQF0 1-341), the binding entry in assay [4] and in assay [5] was “no binding” in each case.

B1: AtTCP3 (protein, UniProt Q9MAH8 1-391)
chain: MAPDNDHFLDSPSPPLLEMRHHQSATENGGGCGEIVEVQGGHIVRSTGRKDRHSKVCTAKGPRDRRVRLSAPTAIQFYDVQDRLGFDRPSKAVDWLITKAKSAIDDLAQLPPWNPADTLRQHAAAAANAKPRKTKTLISPPPPQPEETEHHRIGEEEDNESSFLPASMDSDSIADTIKSFFPVASTQQSYHHQPPSRGNTQNQDLLRLSLQSFQNGPPFPNQTEPALFSGQSNNQLAFDSSTASWEQSHQSPEFGKIQRLVSWNNVGAAESAGSTGGFVFASPSSLHPVYSQSQLLSQRGPLQSINTPMIRAWFDPHHHHHHHQQSMTTDDLHHHHPYHIPPGIHQSAIPGIAFASSGEFSGFRIPARFQGEQEEHGGDNKPSSASSDSRH
Regarding B1, the binding result in assay [6], in [7], in assay [8] and in [9] was “no binding” each time.
